Measured values: the supplement of paper PMC4166925
± gives the standard deviation of the averaged measurements. Over roughly 33,000 sequences, “E-score (dimensionless, -0.5 to 0.5)” has its median near -0.046; the highest 2% begin near 0.36. Some of the results follow.

system: T1, SpTbr T-box DNA-binding domain (GST fusion); assay: PBM E-score of 8-mer (E-score (dimensionless, -0.5 to 0.5)); Tbr is Tbrain of the sea star Patiria miniata (Pm) or the sea urchin Strongylocentrotus purpuratus (Sp); higher = stronger binding preference; most listed sequences are background and not binding sites; conditions: the construct has about 5 more residues each side
T1 sequence: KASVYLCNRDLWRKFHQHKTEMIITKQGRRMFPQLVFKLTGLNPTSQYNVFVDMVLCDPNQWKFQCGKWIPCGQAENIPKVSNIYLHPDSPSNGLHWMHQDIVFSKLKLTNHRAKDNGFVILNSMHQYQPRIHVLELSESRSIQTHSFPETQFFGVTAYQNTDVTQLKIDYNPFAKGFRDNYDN
How it was run: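 Universal Agilent oligonucleotide arrays, made double-stranded by primer extension, were incubated with 200 nM GST-fused Tbr T-box DNA-binding domain in PBS (pH 7.5). The protein was expressed in BL21 E. coli at 20 °C and purified by glutathione affinity chromatography. After scanning and quantification, the Universal PBM Analysis Suite assigned an enrichment E-score to each ungapped 8-mer, averaged over duplicate arrays.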

Sequence	PBM E-score of 8-mer
TGTCAGAA	0.117 ± 0.028
GCTACAAA	-0.0568 ± 0.089
ACGTTGAA	-0.0523 ± 0.011
ATGCAACC	-0.0431 ± 0.029
CACTATTC	0.0129 ± 0.0026
CATGCACG	0.0848 ± 0.014
AAGGATGA	-0.119 ± 0.028
AAGTTCGG	-0.0374 ± 0.049
CTGGACCA	-0.132 ± 0.025
AAGAGATG	-0.0558 ± 0.033
GGTGCCAA	0.447 ± 0.0064
ACACTTGG	0.367 ± 0.022
ATCGGCTC	-0.125 ± 0.044
ACTTCGAG	0.0665 ± 0.024
AGACGTTA	-0.0945 ± 0.015
GACCTTGA	-0.145 ± 0.019
AGGTAGGG	-0.0789 ± 0.073
AAACATCA	-0.0262 ± 0.036
AGAATTCC	-0.127 ± 0.066
GGGTCTAC	-0.2 ± 0.0073
GGTCAGGA	-0.11 ± 0.019
GGATAGCA	0.1153 ± 0.001
CTTCCTAC	-0.141 ± 0.051
CTGTTAGA	0.11 ± 0.12
CTAACTTA	-0.176 ± 0.066

Sequence	PBM E-score of 8-mer
GAACCAGC	-0.0698 ± 0.026
ATAGTGTG	0.388 ± 0.026
GCACCTGC	0.388 ± 0.024
CACGGATC	-0.042 ± 0.011
ACCTAAAT	0.0126 ± 0.068
ATCGCAGA	-0.0763 ± 0.072
ACTAAGCG	-0.1 ± 0.1
GTGAGTGA	0.221 ± 0.0052
ACCCTAAC	0.0196 ± 0.071
ATCGTTTG	0.0457 ± 0.048
AATGATAG	-0.165 ± 0.09
GCCAAAGC	-0.00963 ± 0.048
GACTACAC	0.205 ± 0.029
AAATGGTC	-0.301 ± 0.033
TACCGACA	0.0527 ± 0.056
ATCTCAGC	0.0378 ± 0.026
AAAGCCAT	-0.201 ± 0.015
CGCATTCC	-0.0839 ± 0.0078
CACGGCAA	0.0654 ± 0.0021
CACAGGGC	-0.0221 ± 0.018
AACATCAG	-0.0764 ± 0.029
TACGGAAA	-0.173 ± 0.034
CGTGCCCA	-0.0949 ± 0.11
AGCCCATC	-0.334 ± 0.032
ACGACACT	0.257 ± 0.0054

Sequence	PBM E-score of 8-mer
ACAGTCGC	0.205 ± 0.013
CCACTCTC	-0.0486 ± 0.035
CCGACCAA	-0.0681 ± 0.008
GGGCAGCA	0.0443 ± 0.021
AGGCTCGA	-0.0409 ± 0.026
GCAAGACA	0.054 ± 0.0058
GTTAATAA	0.0847 ± 0.12
CTGTCGAC	0.238 ± 0.062
CCACGGCG	0.065 ± 0.04
TGGCCCAA	-0.205 ± 0.024
ACGAGTGG	0.126 ± 0.025
AGTGATTG	0.0625 ± 0.081
CCGGTGGA	-0.211 ± 0.017
ATTCTAGA	-0.196 ± 0.077
ACGTCGTA	0.00267 ± 0.049
AAGGTAGG	-0.118 ± 0.012
GAGGAAAA	-0.142 ± 0.043
CGATCATA	-0.121 ± 0.017
AACGGTCT	-0.181 ± 0.035
AAACACTG	0.031 ± 0.0022
CAGGTCAA	-0.18 ± 0.073
GGACGCCC	-0.242 ± 0.01
TGGTGAAA	0.0283 ± 0.014
CCAGGTCG	0.054 ± 0.0014
TAAAACCA	-0.0507 ± 0.099

Sequence	PBM E-score of 8-mer
ATCTGCGC	-0.055 ± 0.014
ACGCGCTA	0.315 ± 0.0089
GCATGCAA	-0.000435 ± 0.026
CAGGCAAG	-0.06 ± 0.0088
CTGCAGCA	0.039 ± 0.046
CGCCGCCC	-0.0882 ± 0.041
CTTCAGTA	0.0172 ± 0.023
ATCCCACA	0.243 ± 0.0088
ACGGGGTC	-0.0596 ± 0.061
ATTCAGCC	-0.133 ± 0.0052
ACGGCGCA	-0.00177 ± 0.0056
CGAAAGAC	-0.0164 ± 0.091
GGTGTAAC	0.349 ± 0.014
CATTAGTC	-0.222 ± 0.11
ACCGTTGG	0.127 ± 0.053
ACATGAGG	-0.0182 ± 0.074
CTTTTACA	0.218 ± 0.041
GCAGGCCA	-0.227 ± 0.022
GAATATGA	-0.0965 ± 0.0023
AGGGTCTA	-0.0468 ± 0.13
GAAAGAGC	-0.0245 ± 0.041
CCCAAACG	-0.126 ± 0.0051
ATGCACGG	-0.231 ± 0.075
CCCACGGC	0.0553 ± 0.013
CGCTTCAG	-0.0504 ± 0.046

Sequence	PBM E-score of 8-mer
GCACCTCA	0.343 ± 0.02
CATCTTAA	-0.00458 ± 0.041
CGAGGTAG	-0.0907 ± 0.021
AACCTGAG	0.102 ± 0.046
CTCAACGC	0.142 ± 0.05
AAATGACG	0.0876 ± 0.029
ACAACCCA	0.052 ± 0.063
AGTGCATC	-0.167 ± 0.041
AAGGGAGG	-0.321 ± 0.021
AAGGCGGA	4e-05 ± 0.05
CGTCGACG	0.0187 ± 0.13
GTAGTTGA	0.0599 ± 0.0024
CATGCGGA	-0.0716 ± 0.037
CCAGGATA	-0.078 ± 0.074
AGTGCACC	-0.0193 ± 0.035
ACACACAG	0.3018 ± 0.0005
ACGTTATA	-0.0104 ± 0.028
ATGATGAG	-0.197 ± 0.017
CGCACCCA	0.372 ± 0.029
CAGCACGC	0.158 ± 0.014
GTCTACTA	-0.128 ± 0.044
ACAACGGC	0.109 ± 0.046
ATACAATA	-0.241 ± 0.059
ACCCTCGC	0.147 ± 0.034
CATGAGAG	-0.11 ± 0.025

Sequence	PBM E-score of 8-mer
AGGCGTTG	0.355 ± 0.0053
ACACCTCC	0.4854 ± 0.0043
GTGGATCA	-0.0261 ± 0.024
ACCAATCT	-0.217 ± 0.035
CTGATGAC	0.148 ± 0.0058
GCGGATGA	0.0166 ± 0.08
AACCTCCC	-0.0867 ± 0.0052
CGGTGATA	0.111 ± 0.0075
GGAATTTA	-0.0269 ± 0.075
AAGCAACT	-0.143 ± 0.087
CTATCGCC	0.158 ± 0.0067
CAGATTCC	-0.0334 ± 0.019
CGCTAATC	0.101 ± 0.022
CCGTTAGC	0.302 ± 0.01
AAAAAACG	-0.0376 ± 0.032
AAATCGTG	0.159 ± 0.0075
TACCGCGA	0.0812 ± 0.035
GTGAAAGA	0.274 ± 0.029
AGTAGTTG	0.0394 ± 0.029
CTGACCTC	-0.0999 ± 0.046
ATCAGAAG	-0.0682 ± 0.087
AGGCAGCG	-0.104 ± 0.026
CACCTCAC	0.444 ± 0.012
CTTGTATC	-0.07 ± 0.021
GCCGGACC	-0.135 ± 0.018

Sequence	PBM E-score of 8-mer
GATGTCCA	-0.22 ± 0.056
TGAGTGAA	-0.0573 ± 0.0023
GTAGGGCA	-0.357 ± 0.035
ATCCCTTG	0.00199 ± 0.065
CAAGGAAG	-0.242 ± 0.021
GAGATACC	0.0112 ± 0.035
AGAGGGGC	-0.283 ± 0.029
GCTGTAAC	-0.0609 ± 0.029
AATCACCC	0.1118 ± 0.00022
AAAGATAC	-0.167 ± 0.028
ACCGCCTC	-0.141 ± 0.094
AAGGCAAC	0.0355 ± 0.038
ACGGGACA	-0.0441 ± 0.016
CAGATTTA	-0.287 ± 0.035
AAGGTCGC	0.184 ± 0.011
ACAGATCT	-0.0769 ± 0.007
CTATTCAG	-0.128 ± 0.026
AATTGAGG	-0.138 ± 0.018
AAGATCCT	-0.191 ± 0.043
GCCCAAGA	-0.219 ± 0.088
ATATATCA	-0.104 ± 0.047
GTGCATAA	-0.0784 ± 0.018
